Test results reported in the supplement of paper PMC3724861.
The other results are listed elsewhere or left out.

The sequences below were run on T1, Caupolican (Caup) homeodomain DNA-binding domain (assay: PBM E-score (8-mer, recovered from the published 9-mer minima) (E-score (dimensionless, -0.5 to 0.5)); Drosophila protein; higher = stronger relative binding preference, active = 0.31 or more).
T1 sequence: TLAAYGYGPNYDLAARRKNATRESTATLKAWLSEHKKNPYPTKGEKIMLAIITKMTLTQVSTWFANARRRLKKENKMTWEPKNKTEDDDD
How it was run: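 Caup's homeodomain DNA-binding domain (residues 214-303) was produced by in vitro transcription and translation and applied at 100 nM to custom-designed protein binding microarrays. Each value is an enrichment score giving relative binding preference for a short DNA word; higher means stronger. Published 9-mer scores were the minimum of their two constituent 8-mer scores, and the 8-mer values were recovered from those minima. A cutoff of 0.31 marks candidate binding sequences.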

Row | Sequence | PBM E-score
1 | GATGCACA | inactive: -0.00178
2 | ATTTCCCC | inactive: -0.0493
3 | ACTCGGGC | inactive: -0.0627
4 | ATGCCTAA | inactive: -0.00683
5 | GAGTGACA | inactive: 0.272
6 | GAGGACTA | inactive: -0.0051
7 | ATCTACCA | ≥ 0.132
8 | ACCGCCTG | inactive: -0.124
9 | CACGAACG | inactive: 0.0257
10 | CGCTGGAG | inactive: -0.246
11 | CTAACGTC | inactive: -0.0189
12 | GACTGCGA | inactive: -0.0515
13 | AACCTCCA | inactive: -0.193
14 | GATGGTGA | inactive: -0.0851
15 | CCCACCAC | inactive: -0.154
16 | GCGGGAAC | inactive: -0.228
17 | CCGGGCTC | inactive: -0.27
18 | ACGCCAAG | inactive: -0.154
19 | AATAAGCA | inactive: 0.117
20 | GAACGAGC | inactive: 0.153
21 | AGGGTCGC | inactive: -0.202
22 | AGGACACG | ≥ 0.23
23 | AATTATCA | inactive: 0.198
24 | CGATTCAC | inactive: 0.081

Row | Sequence | PBM E-score
25 | AAGAAGCG | inactive: -0.186
26 | AGTCTTGA | inactive: -0.00056
27 | AACTGGAC | inactive: 0.0468
28 | ACTGGGGA | inactive: -0.176
29 | ATACGCAA | inactive: 0.0746
30 | GCTCTCCA | inactive: -0.0967
31 | CTGACCGA | inactive: -0.14
32 | AACTTTCA | inactive: -0.00477
33 | AAAGGCCT | inactive: -0.141
34 | GCAGCGTA | inactive: -0.0388
35 | AAAGAACC | inactive: -0.064
36 | GCGCGTAA | inactive: -0.0325
37 | ATTTAGAC | inactive: 0.058
38 | AGATGTAG | inactive: 0.244
39 | CTTTTTGC | inactive: -0.135
40 | AGTCACAC | inactive: 0.0486
41 | TACTGATA | ≥ 0.222
42 | AGGGATAG | inactive: -0.0587
43 | AGATCGGC | inactive: -0.152
44 | CTAGTTCA | inactive: 0.12
45 | CAAGCTGG | inactive: -0.105
46 | AAACCGGG | inactive: -0.124
47 | CCAACGCC | inactive: -0.126
48 | ATTGCAAC | inactive: 0.0647

Row | Sequence | PBM E-score
49 | TCATTCGA | inactive: 0.0978
50 | TAGATAGA | inactive: 0.0936
51 | AACCCCCG | inactive: -0.284
52 | CTGGAAGA | inactive: -0.104
53 | ATTTTTCC | inactive: 0.0668
54 | AACTGCGA | inactive: -0.123
55 | AACCCCAG | inactive: -0.152
56 | AGAAAGAA | inactive: -0.048
57 | GCTGCTGA | inactive: -0.0472
58 | AGGTGCGA | inactive: -0.102
59 | AACGCAAT | inactive: 0.0579
60 | AAGCATCA | inactive: 0.0394
61 | ACCACTTC | inactive: 0.0148
62 | ACTTGCGC | inactive: 0.0111
63 | CCATTCTC | inactive: -0.115
64 | AGGGAAGG | inactive: -0.102
65 | TAAATCTA | inactive: 0.0766
66 | AGCTGCGC | inactive: -0.161
67 | ATAGTACA | active: 0.343
68 | CGGTGTAG | inactive: 0.146
69 | CAAAATCA | inactive: 0.142
70 | GCTCCCGA | inactive: -0.164
71 | CGAGGTCA | inactive: -0.0898
72 | AAGAGTAC | inactive: 0.0434

Row | Sequence | PBM E-score
73 | CCGCGCCC | inactive: -0.312
74 | GGCCCGGA | inactive: -0.266
75 | AATAGAGC | inactive: 0.0205
76 | GTCTTGGA | inactive: 0.0411
77 | CGTATGGC | inactive: 0.0196
78 | TCTCAAGA | inactive: -0.0313
79 | ATATGAAT | inactive: 0.107
80 | CCCGTTAG | inactive: -0.204
81 | AGGCCGGC | inactive: -0.263
82 | TATTTTAA | ≥ 0.146
83 | CCCATCAG | inactive: -0.114
84 | CGGCATAG | inactive: -0.0455
85 | ATTACGAA | inactive: 0.115
86 | CCCGACAG | inactive: -0.0633
87 | ACCCCAGC | ≥ -0.13
88 | ACGCAAAC | inactive: 0.0167
89 | CGCGTTAG | inactive: -0.0785
90 | ACCTATGC | inactive: -0.00694
91 | ACGTCTTC | inactive: -0.0311
92 | CCCAGCCA | inactive: -0.16
93 | CCTCGGTA | inactive: -0.132
94 | ATGTCTAG | inactive: 0.269
95 | ATACGTGA | inactive: 0.14
96 | GATGGTGC | inactive: -0.204

Row | Sequence | PBM E-score
97 | AGGTGCTA | ≥ -0.00473
98 | ATGAACTA | ≥ 0.136
99 | CATCATCG | inactive: 0.029
100 | CCACCTAG | inactive: -0.0961
101 | ACCAACTA | inactive: 0.102
102 | TCCGGAGA | inactive: -0.0875
103 | AAGACCGC | inactive: -0.0645
104 | ATTTACGA | inactive: 0.143
105 | GAGTGATC | ≥ 0.157
106 | ATCTGACC | inactive: 0.0104
107 | AGCGTGAA | inactive: 0.0332
108 | AGGTCCTC | inactive: -0.157
109 | GCTGGGCA | inactive: -0.162
110 | TAGGCAGA | inactive: -0.0183
111 | ACATGGGC | inactive: 0.247
112 | CGCTGTAC | inactive: 0.126
113 | CGCCGTCA | inactive: -0.117
114 | TCCGCTAA | inactive: -0.103
115 | ACCCTTCT | inactive: -0.0981
116 | ATGACTTA | inactive: 0.0163
117 | AACGTAGC | inactive: 0.103
118 | GCTGCTCC | inactive: -0.151
119 | GAGCGCGA | inactive: -0.0675
120 | CACGGAAG | inactive: -0.0147

Row | Sequence | PBM E-score
121 | CGCGCGCG | inactive: -0.227
122 | ATACTCGA | inactive: 0.048
123 | CTGTAGAC | inactive: 0.0856
124 | TTACACAA | active: 0.311
125 | CTGGATTA | inactive: 0.0647
126 | TCGCTGCA | inactive: -0.101
127 | CTGTAGCA | inactive: 0.126
128 | AATCCATC | inactive: 0.0793
129 | GCTTAGAA | inactive: 0.0175
130 | GGTAGGGA | inactive: -0.0771
131 | AAGGCCGG | inactive: -0.243
132 | TCGTTACA | inactive: 0.292
133 | CCTTAGTC | inactive: -0.0768
134 | AGCAACTA | ≥ 0.177
135 | GAGGCGAC | inactive: -0.182
136 | ATCTTAAT | ≥ 0.1
137 | CTGGTTAC | inactive: 0.149
138 | GGCTCGGA | inactive: -0.198
139 | ATTTGGGG | inactive: -0.0657
140 | CAAGCGAA | inactive: 0.0164
141 | CAAAGTTA | inactive: 0.108
142 | CGCAACAA | inactive: 0.258
143 | GCTTCTAA | inactive: -0.0352
144 | CCCATATC | inactive: 0.00193
